Values joined by “and” are separate entries in the source; they are usually repeats but may differ in a detail not shown here. Identical values can stand only once. ± gives the uncertainty stated by the source. The source gives many values for each of these; only a part stands here.
Assay: xn = mol fraction of the nth substance listed

Compound: [Ca+2].[Cl-].[Cl-] + O
- viscosity (293.15 K, 100 kPa, x1 = 0.0018): 1.032 ± 0.034 mPa·s
- viscosity (293.15 K, 100 kPa, x1 = 0.0059): 1.1 ± 0.036 mPa·s
- viscosity (293.15 K, 100 kPa, x1 = 0.012): 1.2 ± 0.039 mPa·s
- viscosity (293.15 K, 100 kPa, x1 = 0.017): 1.314 ± 0.043 mPa·s
- viscosity (293.15 K, 100 kPa, x1 = 0.0246): 1.492 ± 0.048 mPa·s
- viscosity (293.15 K, 100 kPa, x1 = 0.0348): 1.8 ± 0.058 mPa·s
- viscosity (293.15 K, 101 kPa, x1 = 0.07): 3.29 ± 0.16 mPa·s
- viscosity (293.15 K, 101 kPa, x1 = 0.08): 5.22 ± 0.25 mPa·s
- viscosity (293.15 K, 101 kPa, x1 = 0.087): 6.06 ± 0.29 mPa·s
- viscosity (293.15 K, 101 kPa, x1 = 0.1): 9.39 ± 0.45 mPa·s
- viscosity (293.15 K, 101 kPa, x1 = 0.103): 10.61 ± 0.51 mPa·s
- viscosity (293.15 K, 101 kPa, x1 = 0.11): 12.11 ± 0.58 mPa·s and 15.08 ± 0.72 mPa·s
- viscosity (293.15 K, 101 kPa, x1 = 0.12): 16.71 ± 0.8 mPa·s
- viscosity (293.15 K, 101.3 kPa, x1 = 0.0009): 1.018 ± 0.022 mPa·s
- viscosity (293.15 K, 101.3 kPa, x1 = 0.0018): 1.034 ± 0.022 mPa·s
- viscosity (293.15 K, 101.3 kPa, x1 = 0.00893): 1.156 ± 0.025 mPa·s
- viscosity (293.15 K, 101.3 kPa, x1 = 0.0177): 1.328 ± 0.028 mPa·s
- viscosity (293.15 K, 101.3 kPa, x1 = 0.03478): 1.789 ± 0.038 mPa·s
- viscosity (293.15 K, 101.3 kPa, x1 = 0.05127): 2.488 ± 0.053 mPa·s
- viscosity (293.15 K, 101.3 kPa, x1 = 0.06722): 3.603 ± 0.077 mPa·s
- viscosity (293.15 K, 101.3 kPa, x1 = 0.09755): 8.476 ± 0.18 mPa·s
- viscosity (298.15 K, 100 kPa, x1 = 0.0018): 0.9179 ± 0.03 mPa·s
- viscosity (298.15 K, 100 kPa, x1 = 0.0059): 0.9816 ± 0.032 mPa·s
- viscosity (298.15 K, 100 kPa, x1 = 0.012): 1.073 ± 0.035 mPa·s
- viscosity (298.15 K, 100 kPa, x1 = 0.017): 1.175 ± 0.038 mPa·s
- viscosity (298.15 K, 100 kPa, x1 = 0.0246): 1.339 ± 0.043 mPa·s
- viscosity (298.15 K, 100 kPa, x1 = 0.0348): 1.618 ± 0.053 mPa·s
- viscosity (298.15 K, 101 kPa, x1 = 0.051): 2.238 ± 0.027 mPa·s
- viscosity (298.15 K, 101.3 kPa, x1 = 0.0009): 0.9052 ± 0.019 mPa·s
- viscosity (298.15 K, 101.3 kPa, x1 = 0.0018): 0.9192 ± 0.02 mPa·s
- viscosity (298.15 K, 101.3 kPa, x1 = 0.00893): 1.032 ± 0.022 mPa·s
- viscosity (298.15 K, 101.3 kPa, x1 = 0.0177): 1.19 ± 0.025 mPa·s
- viscosity (298.15 K, 101.3 kPa, x1 = 0.06722): 3.225 ± 0.068 mPa·s
- viscosity (298.15 K, 101.3 kPa, x1 = 0.09755): 7.414 ± 0.16 mPa·s
- viscosity (303.15 K, 101 kPa, x1 = 0.07): 2.56 ± 0.12 mPa·s
- viscosity (303.15 K, 101 kPa, x1 = 0.08): 3.99 ± 0.19 mPa·s
- viscosity (303.15 K, 101 kPa, x1 = 0.087): 4.66 ± 0.22 mPa·s
- viscosity (303.15 K, 101 kPa, x1 = 0.1): 6.96 ± 0.33 mPa·s
- viscosity (303.15 K, 101 kPa, x1 = 0.103): 7.95 ± 0.38 mPa·s
- viscosity (303.15 K, 101 kPa, x1 = 0.11): 8.84 ± 0.43 mPa·s and 10.88 ± 0.52 mPa·s
- viscosity (303.15 K, 101 kPa, x1 = 0.12): 11.67 ± 0.56 mPa·s
- viscosity (303.15 K, 101.3 kPa, x1 = 0.0009): 0.8107 ± 0.017 mPa·s
- viscosity (303.15 K, 101.3 kPa, x1 = 0.0018): 0.8242 ± 0.017 mPa·s
- viscosity (303.15 K, 101.3 kPa, x1 = 0.00893): 0.9285 ± 0.02 mPa·s
- viscosity (303.15 K, 101.3 kPa, x1 = 0.0177): 1.074 ± 0.023 mPa·s
- viscosity (303.15 K, 101.3 kPa, x1 = 0.03478): 1.457 ± 0.031 mPa·s
- viscosity (303.15 K, 101.3 kPa, x1 = 0.05127): 2.025 ± 0.043 mPa·s
- viscosity (303.15 K, 101.3 kPa, x1 = 0.06722): 2.908 ± 0.062 mPa·s
- viscosity (303.15 K, 101.3 kPa, x1 = 0.09755): 6.541 ± 0.14 mPa·s
- viscosity (308.15 K, 101 kPa, x1 = 0.051): 1.835 ± 0.022 mPa·s
- viscosity (308.15 K, 101.3 kPa, x1 = 0.0009): 0.7318 ± 0.015 mPa·s
- viscosity (308.15 K, 101.3 kPa, x1 = 0.0018): 0.7442 ± 0.016 mPa·s
- viscosity (308.15 K, 101.3 kPa, x1 = 0.00893): 0.8406 ± 0.018 mPa·s
- viscosity (308.15 K, 101.3 kPa, x1 = 0.0177): 0.9753 ± 0.021 mPa·s
- viscosity (308.15 K, 101.3 kPa, x1 = 0.03478): 1.326 ± 0.028 mPa·s
- viscosity (308.15 K, 101.3 kPa, x1 = 0.05127): 1.844 ± 0.039 mPa·s
- viscosity (308.15 K, 101.3 kPa, x1 = 0.06722): 2.636 ± 0.056 mPa·s
- viscosity (308.15 K, 101.3 kPa, x1 = 0.09755): 5.814 ± 0.12 mPa·s
- viscosity (308.45 K, 100 kPa, x1 = 0.0348): 1.322 ± 0.043 mPa·s
- viscosity (309.75 K, 100 kPa, x1 = 0.0246): 1.066 ± 0.035 mPa·s
- viscosity (310.25 K, 100 kPa, x1 = 0.0018): 0.713 ± 0.023 mPa·s
- viscosity (312.45 K, 100 kPa, x1 = 0.0059): 0.733 ± 0.024 mPa·s
- viscosity (313.15 K, 101 kPa, x1 = 0.07): 2.05 ± 0.1 mPa·s
- viscosity (313.15 K, 101 kPa, x1 = 0.08): 3.09 ± 0.15 mPa·s
- viscosity (313.15 K, 101 kPa, x1 = 0.087): 3.62 ± 0.17 mPa·s
- viscosity (313.15 K, 101 kPa, x1 = 0.1): 5.3 ± 0.25 mPa·s
- viscosity (313.15 K, 101 kPa, x1 = 0.103): 5.91 ± 0.28 mPa·s
- viscosity (313.15 K, 101 kPa, x1 = 0.11): 6.65 ± 0.32 mPa·s and 8.08 ± 0.39 mPa·s
- viscosity (313.15 K, 101 kPa, x1 = 0.12): 8.79 ± 0.42 mPa·s
- viscosity (313.45 K, 100 kPa, x1 = 0.012): 0.7889 ± 0.026 mPa·s
- viscosity (315.38 K, 100 kPa, x1 = 0.017): 0.842 ± 0.027 mPa·s
- viscosity (318.15 K, 101.3 kPa, x1 = 0.0009): 0.6075 ± 0.013 mPa·s
- viscosity (318.15 K, 101.3 kPa, x1 = 0.0018): 0.6181 ± 0.013 mPa·s
- viscosity (318.15 K, 101.3 kPa, x1 = 0.00893): 0.7004 ± 0.015 mPa·s
- viscosity (318.15 K, 101.3 kPa, x1 = 0.0177): 0.8172 ± 0.017 mPa·s
- viscosity (318.15 K, 101.3 kPa, x1 = 0.03478): 1.119 ± 0.024 mPa·s
- viscosity (318.15 K, 101.3 kPa, x1 = 0.05127): 1.554 ± 0.033 mPa·s
- viscosity (318.15 K, 101.3 kPa, x1 = 0.06722): 2.207 ± 0.047 mPa·s
- viscosity (318.15 K, 101.3 kPa, x1 = 0.09755): 4.699 ± 0.1 mPa·s
- viscosity (323.15 K, 101 kPa, x1 = 0.07): 1.72 ± 0.08 mPa·s
- viscosity (323.15 K, 101 kPa, x1 = 0.08): 2.56 ± 0.12 mPa·s
- viscosity (323.15 K, 101 kPa, x1 = 0.087): 2.95 ± 0.14 mPa·s
- viscosity (323.15 K, 101 kPa, x1 = 0.1): 4.22 ± 0.2 mPa·s
- viscosity (323.15 K, 101 kPa, x1 = 0.103): 4.68 ± 0.22 mPa·s
- viscosity (323.15 K, 101 kPa, x1 = 0.11): 5.26 ± 0.25 mPa·s and 6.29 ± 0.3 mPa·s
- viscosity (323.15 K, 101 kPa, x1 = 0.12): 6.72 ± 0.32 mPa·s
